# Data taken from PubChem BioAssay AID1347165 (National Center for Advancing Translational Sciences (NCATS), 2019).
# The campaign covered roughly 220,000 compounds. About 5,700 (2.6%) were called active. Inconclusive means that the source gave no clear call. Such entries were picked first, then a sample of the others. Calls come from the whole dose curve; as a rule, active = well fitted inhibition curve with a large enough effect; inconclusive = small, poorly fitted or top-dose-only effect; inactive = no such curve, though single readings can be large or run the other way. Where the call is inconclusive, the potency comes from a doubtful curve fit.
# Biological target: Lysine-specific demethylase 5B (Homo sapiens) (UniProt Q9UGL1)
# Chain of UniProt Q9UGL1 (Q9UGL1 whole entry, looked up): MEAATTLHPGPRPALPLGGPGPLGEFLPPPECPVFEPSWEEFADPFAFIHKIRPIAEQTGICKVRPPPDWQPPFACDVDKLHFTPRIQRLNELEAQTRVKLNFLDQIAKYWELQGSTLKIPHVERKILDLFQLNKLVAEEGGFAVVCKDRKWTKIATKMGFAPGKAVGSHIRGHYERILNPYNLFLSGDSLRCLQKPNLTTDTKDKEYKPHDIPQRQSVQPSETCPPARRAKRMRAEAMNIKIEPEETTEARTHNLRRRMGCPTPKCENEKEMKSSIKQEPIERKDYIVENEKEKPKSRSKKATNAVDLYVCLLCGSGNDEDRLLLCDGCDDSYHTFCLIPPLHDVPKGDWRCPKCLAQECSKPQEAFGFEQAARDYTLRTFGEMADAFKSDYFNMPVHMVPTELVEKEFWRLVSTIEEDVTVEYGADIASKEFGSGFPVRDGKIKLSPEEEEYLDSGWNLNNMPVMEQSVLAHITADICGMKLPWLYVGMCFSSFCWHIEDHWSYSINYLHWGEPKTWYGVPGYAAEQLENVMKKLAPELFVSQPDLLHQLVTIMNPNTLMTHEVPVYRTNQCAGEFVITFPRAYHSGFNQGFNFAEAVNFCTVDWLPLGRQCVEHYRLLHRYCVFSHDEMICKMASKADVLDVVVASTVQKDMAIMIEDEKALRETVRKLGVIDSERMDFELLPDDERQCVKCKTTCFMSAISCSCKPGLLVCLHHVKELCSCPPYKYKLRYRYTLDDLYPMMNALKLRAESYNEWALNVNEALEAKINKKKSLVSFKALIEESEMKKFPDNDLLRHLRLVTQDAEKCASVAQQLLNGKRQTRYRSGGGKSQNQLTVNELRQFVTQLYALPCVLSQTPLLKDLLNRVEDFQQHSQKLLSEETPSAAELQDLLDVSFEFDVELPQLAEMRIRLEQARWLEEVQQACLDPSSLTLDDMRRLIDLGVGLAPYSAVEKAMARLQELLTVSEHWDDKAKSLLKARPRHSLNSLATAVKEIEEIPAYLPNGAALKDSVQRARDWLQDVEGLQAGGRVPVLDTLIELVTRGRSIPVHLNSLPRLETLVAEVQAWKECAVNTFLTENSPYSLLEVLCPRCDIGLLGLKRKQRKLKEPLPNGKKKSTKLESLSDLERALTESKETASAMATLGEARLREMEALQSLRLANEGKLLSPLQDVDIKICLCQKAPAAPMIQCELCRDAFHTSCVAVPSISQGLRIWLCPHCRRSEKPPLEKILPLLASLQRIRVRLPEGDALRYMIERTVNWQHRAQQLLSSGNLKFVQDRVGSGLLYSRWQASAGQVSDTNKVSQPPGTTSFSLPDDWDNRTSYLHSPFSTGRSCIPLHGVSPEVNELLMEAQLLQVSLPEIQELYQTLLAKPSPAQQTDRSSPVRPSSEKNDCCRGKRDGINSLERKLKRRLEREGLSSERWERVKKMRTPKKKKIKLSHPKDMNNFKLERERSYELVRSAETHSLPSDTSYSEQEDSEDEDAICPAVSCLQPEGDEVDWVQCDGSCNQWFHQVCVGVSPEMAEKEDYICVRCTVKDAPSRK
# Assay: Primary screen for KDM5B Histone Demethylases FDH-coupled qHTS; note: nearly all actives have a fitted effect of over 70% in size
# Conditions: FDH-coupled NADH fluorescence (FDH is formaldehyde dehydrogenase); series mostly up to 57.7 µM
# Procedure, shortened: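 Here, H3K4me3 peptide (12.5 µM in substrate mix) is demethylated by KDM5BΔAP, 200 nM final, after 10 min compound exposure. Formaldehyde product is coupled through FDH (0.25 U/mL in mix) to NADH fluorescence; 30-min ΔRFU feeds dose-response curves.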
# Potency is the fitted concentration of half-maximal effect; tags give direction and shape of the fitted curve.
row,Structure (SMILES),Potency
1,CCn1c(=O)c2c(cc(C)n2C)n(CC(=O)Nc2c(C)cccc2C)c1=O,inactive
2,COc1cccc([S+](=O)([O-])N2CCC3(C2)N=C(c2ccccn2)C(=O)N3)c1 (centres undefined),"inconclusive: 22.4 µM [inhibitor, partial curve, poor fit]"
3,CCOC(=O)c1ccc(NC(=O)c2c(NCc3cccs3)sc3c2CCCCC3)cc1,"inconclusive: 22.4 µM [inhibitor, partial curve, poor fit]"
4,COc1ccc(C(=O)Nc2cc(-c3cccc(C)c3)nn2-c2ccccc2)cc1,"inconclusive: 14.1 µM [inhibitor, partial curve, poor fit]"
5,CCCOC(=O)c1nc2ccccc2nc1N1CCN(Cc2ccccc2)CC1,inactive
6,CN1CCOC(CNC(=O)Cc2ccc(Cl)cc2)C1 (centres undefined),inactive
7,Cc1ccc(-c2cn3c(n2)sc2cc(C(=O)NCCCN4CCCCC4)ccc23)cc1,"inconclusive: 1.58 µM [inhibitor, partial curve, poor fit]"
8,CC(C)(C)c1cc(C[C@@H]2CC[C@H](O)[C@@H](CNC(=O)c3cccc(F)c3)O2)no1,inactive
9,Cn1cccc1CN1CCC2(C1)C(=O)N(c1ccccc1)c1ccccc12 (centres undefined),"inconclusive: 89.1 µM [inhibitor, partial curve]"
10,O=C(Nc1ccccc1)N1CCC(N2CCN(Cc3ccccn3)C(=O)C2=O)CC1,inactive
11,O=Cc1ccc(-c2ccc(I)cc2Cl)o1,inactive
12,CCOc1ccc(NC(=O)c2cc3c(-c4ccccc4F)nn(C)c3s2)cc1,"inconclusive: 39.8 µM [inhibitor, single point]"
13,COc1ccccc1C(=O)Nc1c(C(=O)N(CCN(C)C)Cc2ccco2)oc2ccccc12,"inconclusive: 15.8 µM [inhibitor, partial curve, poor fit]"
14,CCn1ncc(CN2CC[C@@H]3C(=O)NCCCCCCN(Cc4ccncc4)[C@@H]3C2)c1C,"inconclusive: 31.6 µM [inhibitor, single point]"
15,C=Cc1ccc(Cn2c(C(=O)O)c(CNCc3cccs3)c3ccc(C)cc32)cc1,"inconclusive: 15.8 µM [inhibitor, partial curve, poor fit]"
16,Cc1ccc(Cn2c(=O)n(-c3ccccc3)c(=O)c3ccc(C(=O)NCc4ccco4)cc32)cc1,"inconclusive: 17.8 µM [inhibitor, partial curve, poor fit]"
17,Cc1nn(Cc2cc(=O)oc3c(C)c(O)ccc23)c(=O)c(C#N)c1C,inactive
18,Cc1ccc(C)c(OC(=O)c2ccccc2F)c1,inactive
19,Cc1noc2c(-c3cccnc3NC3CCN(C)CC3)cc(-c3ccc(Cl)cc3)nc12,"inconclusive: 39.8 µM [inhibitor, partial curve, poor fit]"
